Data reported in PubChem BioAssay AID686979 (National Center for Advancing Translational Sciences (NCATS), 2013).
Where “and” joins values, the source holds several entries; their conditions need not be identical. Equal values may be shown once. About 50,000 (12%) of roughly 420,000 compounds were called active. This list was built around the results that the source calls inconclusive (neither active nor inactive); the mix of calls is not that of the screen. Calls come from the whole dose curve; as a rule, active = well fitted inhibition curve with a large enough effect; inconclusive = small, poorly fitted or top-dose-only effect; inactive = flat fitted curve, though single readings scatter. Where the call is inconclusive, the potency comes from a doubtful curve fit.
% is set by controls: 0 for no effect and ±100 for the full control effect; potency is the fitted concentration of half-maximal effect; tags give direction and shape of the fitted curve.

Experiment: qHTS for Inhibitors of human tyrosyl-DNA phosphodiesterase 1 (TDP1): qHTS in cells in presence of CPT; note: nearly all actives have a fitted effect of over 55% in size
Details: chicken DT40 Tdp1-/-;hTDP1 cells + 20 nM CPT, ATP luminescence, 48 h; activity change, negative = growth inhibition: at 46.2 µM (top of the series)
How it was run: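 Chicken DT40 Tdp1-/- cells complemented with human TDP1, 400 cells/well, exposed to compounds plus 20 nM camptothecin for at least 48 h at 37 C; viability read as ATP content by CellTiter-Glo luminescence.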
For COc1ccc(CN2CCC(C(=O)NC(C)c3cccc4ccccc34)CC2)cc1 (stereo unspecified), the Potency was inconclusive: 16.4 µM [inhibitor, single point]. With O=C(COCc1cc(-c2ccc3c(c2)OCO3)on1)N1CCN(c2ccccc2)CC1 the Potency was inconclusive: 10.3 µM [inhibitor, partial curve]. For COc1ccccc1N(C)S(=O)(=O)c1ccc(C(=O)Nc2ccc(C)cc2C)cc1, the Potency was inconclusive: 29.1 µM [inhibitor, partial curve, poor fit]. With COc1ccc(OCC(=O)Nc2c(C(=O)N3CCC(N4CCCCC4)CC3)oc3ccccc23)cc1 the Potency was inconclusive: 18.4 µM [inhibitor, partial curve]. In the case of CCOc1ccc(N2C(=O)/C(=C/c3cc(OC)c(OC)c(OC)c3)N(CC(=O)OC)C2=S)cc1, the Potency is reported as inconclusive: 20.6 µM [inhibitor, single point]. With COc1ccccc1NC(=O)C1=C(C)Nc2nc(SCc3ccccc3F)nn2C1c1cccs1 (stereo unspecified) the Potency was active: 8.2 µM. In the case of Cc1cccc(NC(=O)c2nc[nH]c2C(=O)Nc2ccccc2[N+](=O)[O-])c1, the Potency is reported as active: 6.51 µM. For Cc1c(Cl)cccc1NC(=O)CSc1nnc(C)n1-c1ccccc1, the Potency was inconclusive: 20.6 µM [inhibitor, single point]. For COc1ccc(-n2nnnc2C2CCN(S(=O)(=O)c3ccc(C(C)(C)C)cc3)CC2)cc1, the Potency was “inactive”. For CCC(CC)C(=O)Nc1nc2c(s1)CC(C)CC2 (stereo unspecified), the Potency was active: 16.4 µM. For COc1ccc(/C=C(\C#N)C(=O)Nc2cccc3ncccc23)cc1OC, the Potency was inconclusive: 18.4 µM [inhibitor, single point]. For COc1ccc(CCNC(=O)C(=O)NCC2CCCN2S(=O)(=O)c2cc(C)ccc2C)cc1 (stereo unspecified), the Potency was inconclusive: 20.6 µM [inhibitor, single point]. For Cc1ccc(C(=O)Nc2cccc(C(F)(F)F)c2)cc1Nc1cncnc1, the Potency was inconclusive: 29.1 µM [inhibitor, partial curve] and inconclusive: 18.4 µM [inhibitor, single point]. For Cc1ccc(/C=C(\NC(=O)c2ccc(C)cc2)C(=O)NCCCn2ccnc2)cc1, the Potency was “inactive”. With OCC[C@H]1C[C@@H](O)[C@H](O)[C@@]2(OCCc3ccccc32)O1 the Potency was inconclusive: 25.9 µM [inhibitor, single point]. For COc1ccc(CCNC(=O)C2CCCN(S(=O)(=O)c3ccc(F)cc3)C2)cc1 (stereo unspecified), the Potency was inconclusive: 16.4 µM [inhibitor, single point]. For CC1=NN(C(=O)c2ccco2)C(O)(c2ccccc2)C1 (stereo unspecified), the Potency was active: 1.03 µM. For Cc1ccc(NC(=O)C(=O)Nc2ccc(C)cn2)nc1, the Potency was “inactive”. With COc1ccc(NC(=O)c2ccc3c(c2)OCCO3)cc1OC the Potency was “inactive”. In the case of C[C@H]1CN([C@@H](C)CO)C(=O)c2cc(C3=CCCC3)cnc2O[C@@H]1CN(C)C(=O)c1ccncc1, the Potency is reported as “inactive”. For CCC/C(=C1/c2ccccc2C(=O)N1c1ccccc1)c1ccc2c(c1)OCCO2, the Potency was inconclusive: 20.6 µM [inhibitor, single point]. For CCOC(=O)c1cn(CC)c2ccc(S(=O)(=O)N3CC(C)CC(C)C3)cc2c1=O (stereo unspecified), the Potency was inconclusive: 5.17 µM [inhibitor, full curve]. For Cc1noc(C)c1COc1ccc(C(=O)N2CCN(S(=O)(=O)c3ccc(F)cc3)CC2)cc1, the Potency was inconclusive: 29.1 µM [inhibitor, single point]. For COc1ccc(-c2csc(NCc3ccco3)n2)cc1, the Potency was inconclusive: 29.1 µM [inhibitor, single point]. In the case of COc1ccc(N(C(=O)c2cccnc2)S(=O)(=O)c2ccc(Cl)cc2)cc1, the Potency is reported as inconclusive: 23.1 µM [inhibitor, partial curve]. With Cc1ccc(Nc2cc(C)nc3c(C)ccc([N+](=O)[O-])c23)cc1 the Potency was inconclusive: 8.2 µM [inhibitor, partial curve]. In the case of Cc1ccn2c(=O)nc(SCC(=O)N3CCCCC3)nc2c1, the Potency is reported as inconclusive: 29.1 µM [inhibitor, single point]. In the case of COc1ccccc1CCNS(=O)(=O)c1ccc(N2CCCCS2(=O)=O)cc1, the Potency is reported as active: 23.1 µM. In the case of COc1ccc(CCNC(=O)c2cccc(S(=O)(=O)N3CCCC3)c2)cc1, the Potency is reported as inconclusive: 29.1 µM [inhibitor, single point]. In the case of O=C(COC(=O)C1(c2ccccc2F)CCCC1)NCc1cccs1, the Potency is reported as inconclusive: 23.1 µM [inhibitor, partial curve, poor fit]. In the case of COc1ccc(CNC(=O)c2ccc(CS(=O)Cc3ccccc3Cl)o2)cc1 (stereo unspecified), the Potency is reported as inconclusive: 20.6 µM [inhibitor, partial curve]. With COCC(C)NC(=O)c1cc2cc(OC)ccc2[nH]1 (stereo unspecified) the Potency was “inactive”. In the case of CCOC(=O)[C@]12CCC=C1N(Cc1ccco1)C(=O)[C@H](CC(=O)N1CCC(c3ccccc3)CC1)C2, the Potency is reported as inconclusive: 29.1 µM [inhibitor, single point]. In the case of C#CCOCCOCCOCCNc1nc(N2CCN(C(=O)CCCCCCCCCCNC(=O)[C@H](CCCCN)n3cc(CCO)nn3)CC2)nc(N2CCN(C(=O)CCCCCCCCCCNC(=O)[C@@H]([C@H](C)O)n3cc(C)nn3)CC2)n1, the Potency is reported as inconclusive: 29.1 µM [inhibitor, single point]. In the case of Cc1cc(NC(=O)CSCC(=O)NC(C)c2ccccc2)no1 (stereo unspecified), the Potency is reported as “inactive”. In the case of Cc1ccc(N/N=C/c2ccc(N3CCOCC3)cc2)cc1C, the Potency is reported as active: 23.1 µM. With O=C(C1CCCCN1S(=O)(=O)c1ccccc1)N1CCN(Cc2ccccc2)CC1 (stereo unspecified) the activity change, negative = growth inhibition was inconclusive: -37.7% [inhibitor]. With CN1CCN(NC(=O)c2cc(-c3ccc(Br)s3)nc3ccccc23)CC1 the Potency was inconclusive: 10.3 µM [inhibitor, partial curve]. With O=C(NCc1ccco1)c1ccc2c(c1)N(Cc1ccccc1)C(=O)CS2 the Potency was inconclusive: 23.1 µM [inhibitor, single point]. For COCc1ccc(C(=O)Nc2ccccc2C(=O)NCc2cccnc2)cc1, the Potency was “inactive”. With CCOC(=O)C1=C(C)Nc2nc(SCC(=O)OC)nn2C1c1cc(F)cc(F)c1 (stereo unspecified) the Potency was inconclusive: 29.1 µM [inhibitor, single point].
